Measurements from article PMC4336329 (PLoS ONE, 2015).
The campaign covered roughly 310,000 compounds. About 2,200 (0.71%) showed an effect of 50% or more. The effect is printed as a negative number. Some of the results follow.

What follows are compounds tested against human ether-à-go-go-related gene (hERG) potassium channel (human, UniProt Q12809) (assay: primary screen, population patch clamp on CHO cells stably expressing hERG).
Sequence of human ether-à-go-go-related gene (hERG) potassium channel (Q12809 whole entry, looked up): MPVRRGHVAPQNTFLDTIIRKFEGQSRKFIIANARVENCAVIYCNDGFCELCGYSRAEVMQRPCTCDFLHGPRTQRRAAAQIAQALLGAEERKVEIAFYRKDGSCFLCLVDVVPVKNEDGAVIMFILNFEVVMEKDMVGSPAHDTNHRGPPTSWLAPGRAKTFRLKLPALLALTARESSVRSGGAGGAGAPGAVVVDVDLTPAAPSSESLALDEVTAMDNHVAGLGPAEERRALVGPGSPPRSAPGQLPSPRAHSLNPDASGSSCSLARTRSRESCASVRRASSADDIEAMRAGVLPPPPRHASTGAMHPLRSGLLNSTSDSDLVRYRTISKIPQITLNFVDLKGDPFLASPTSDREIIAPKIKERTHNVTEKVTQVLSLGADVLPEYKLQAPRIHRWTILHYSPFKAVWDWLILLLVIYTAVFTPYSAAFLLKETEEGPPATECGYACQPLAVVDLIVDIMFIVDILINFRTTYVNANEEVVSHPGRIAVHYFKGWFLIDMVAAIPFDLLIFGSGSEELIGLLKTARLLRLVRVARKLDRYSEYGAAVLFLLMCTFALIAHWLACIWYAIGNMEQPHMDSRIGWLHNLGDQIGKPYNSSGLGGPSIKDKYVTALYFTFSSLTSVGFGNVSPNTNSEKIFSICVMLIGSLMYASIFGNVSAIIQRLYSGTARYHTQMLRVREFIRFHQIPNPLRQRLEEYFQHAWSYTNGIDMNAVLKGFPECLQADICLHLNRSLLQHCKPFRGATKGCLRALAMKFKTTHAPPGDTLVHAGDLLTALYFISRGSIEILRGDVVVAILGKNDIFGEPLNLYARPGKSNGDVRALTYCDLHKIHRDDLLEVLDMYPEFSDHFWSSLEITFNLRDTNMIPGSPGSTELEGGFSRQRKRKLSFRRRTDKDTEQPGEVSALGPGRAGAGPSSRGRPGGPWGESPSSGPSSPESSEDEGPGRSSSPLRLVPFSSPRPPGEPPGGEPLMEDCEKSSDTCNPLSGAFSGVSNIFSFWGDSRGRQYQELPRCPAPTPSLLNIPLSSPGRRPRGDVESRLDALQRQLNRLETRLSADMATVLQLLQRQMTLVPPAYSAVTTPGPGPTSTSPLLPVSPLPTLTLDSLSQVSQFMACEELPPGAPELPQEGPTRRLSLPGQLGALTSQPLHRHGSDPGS
With `COc1ccc([C@@H]2[C@@H]3C(=O)N(C(C)(C)C)C(=O)[C@@H]3[C@]3(Cc4ccccc4)C(=O)N(c4ccc(C)cc4)C(=O)N23)cc1` the “hERG current change (%, negative = inhibition) at 1uM” value was 7.93%.
For `CCOC(=O)CC(NC(=O)Cc1ccc(F)cc1)c1ccccc1Cl` (centres unmarked), the “hERG current change (%, negative = inhibition) at 1uM” value was 11.8%.
In the case of `O=C1c2ccccc2C(Nc2cccc(C(F)(F)F)c2)N1Cc1ccco1` (centres unmarked), the “hERG current change (%, negative = inhibition) at 1uM” value is reported as 7.35%.
With `CCOC(=O)CSc1nc2sc3c(c2c(=O)n1CC)CC(C)(C)OC3` the “hERG current change (%, negative = inhibition) at 1uM” value was -2.39%.
In the case of `Cc1c(C(=O)O)oc2ccc(S(=O)(=O)NCCC3=CCCCC3)cc12`, the “hERG current change (%, negative = inhibition) at 1uM” value is reported as 3.55%.
`CCN1CCN(c2ccc(S(=O)(=O)N3CCOCC3)cc2NC(=O)c2ccccc2OC(F)F)CC1` was tested, and the “hERG current change (%, negative = inhibition) at 1uM” value was -6.24%.
With `CCOC(=O)CSc1nncc2ccc(OC)c(OC)c12` the “hERG current change (%, negative = inhibition) at 1uM” value was 8.7%.
With `CSc1nnc([C@@H](NC(=O)OC(C)(C)C)C(C)C)o1` the “hERG current change (%, negative = inhibition) at 1uM” value was 5.48%.
With `CCCc1nc(Nc2nc3ccccc3o2)nc(C)c1C(=O)OCC` the “hERG current change (%, negative = inhibition) at 1uM” value was 6.25%.
For `CCc1ccccc1NC(=O)c1cccc(Oc2ccc([N+](=O)[O-])cc2Cl)c1`, the “hERG current change (%, negative = inhibition) at 1uM” value was 8.81%.
For `Cc1nc([N+](=O)[O-])c(C(=O)OCc2ccccc2C#N)n1C`, the “hERG current change (%, negative = inhibition) at 1uM” value was 6.21%.
With `COc1ccc(-n2c(SCC(N)=O)nnc2-c2ccc(NS(=O)(=O)c3ccc(C)cc3)cc2)cc1` the “hERG current change (%, negative = inhibition) at 1uM” value was 20.3%.
In the case of `Cc1noc(C)c1COC(=O)COc1cccc2c1OC(C)(C)C2`, the “hERG current change (%, negative = inhibition) at 1uM” value is reported as 10.7%.
With `CCn1c(SCC(=O)c2ccc(OC)cc2)nnc1C1CC1` the “hERG current change (%, negative = inhibition) at 1uM” value was 14.1%.
With `CN(C)S(=O)(=O)c1ccc(NC(=O)COC(=O)c2ccccn2)cc1` the “hERG current change (%, negative = inhibition) at 1uM” value was 11.9%.
For `COCCN(C(=O)Nc1ccc(F)cc1F)c1nc2ccccc2s1`, the “hERG current change (%, negative = inhibition) at 1uM” value was 15.8%.
In the case of `CCOC(=O)C1=C(C)NC(=O)NC1c1ccc(-c2ccccc2F)o1` (centres unmarked), the “hERG current change (%, negative = inhibition) at 1uM” value is reported as 5.14%.
For `Cc1ccc(OCCSc2ncnc3nc[nH]c23)cc1`, the “hERG current change (%, negative = inhibition) at 1uM” value was 8.17%.
`COc1ccc(Cl)cc1NC(=O)CNc1ccccc1CN(C)C1CCCCC1` was tested, and the “hERG current change (%, negative = inhibition) at 1uM” value was 17.1%.
With `O=C(Nc1ccc(-c2ccc([N+](=O)[O-])cc2)cc1)c1ccccc1F` the “hERG current change (%, negative = inhibition) at 1uM” value was 15.3%.
In the case of `Nc1ncc(Br)cc1S(=O)(=O)NCCC(=O)N1CCN(c2ncccn2)CC1`, the “hERG current change (%, negative = inhibition) at 1uM” value is reported as -11.3%.
In the case of `O=C1c2ccccc2C(=O)N1c1ncn[nH]1`, the “hERG current change (%, negative = inhibition) at 1uM” value is reported as 12.7%.
In the case of `COc1ccc(/C(C)=N/NC(=O)c2cccc(S(=O)(=O)N3CCCC3)c2)c(O)c1`, the “hERG current change (%, negative = inhibition) at 1uM” value is reported as 11.5%.
